The GPR68 mutational scans of Howard et al. (2025)
The least precise scores are not listed. Two further conditions of the source, in which the scores hardly spread, are not listed. Names with del lack the residues named; names with ins carry added residues between the positions named. For some of these results: The concentration of ogerin is not given here.

B1: GPR68, Q15743 (parent)
chain: MGNITADNSSMSCTIDHTIHQTLAPVVYVTVLVVGFPANCLSLYFGYLQIKARNELGVYLCNLTVADLFYICSLPFWLQYVLQHDNWSHGDLSCQVCGILLYENIYISVGFLCCISVDRYLAVAHPFRFHQFRTLKAAVGVSVVIWAKELLTSIYFLMHEEVIEDENQHRVCFEHYPIQAWQRAINYYRFLVGFLFPICLLLASYQGILRAVRRSHGTQKSRKDQIQRLVLSTVVIFLACFLPYHVLLLVRSVWEASCDFAKGVFNAYHFSLLLTSFNCVADPVLYCFVSETTHRDLARLRGACLAFLTCSRTGRAREAYPLGAPEASGKSGAQGEEPELLTKLHPAFQTPNSPGSGGFPTGRLA

Experiments:
[1] = variants of: B1; experiment: cAMP reporter score (Enrich2 score, wild type = 0); higher = more signal; HEK293T, FACS bins
[2] = variants of: B1; experiment: surface expression score (Enrich2 score, wild type = 0); higher = more signal; HEK293T, FACS bins

Variant	cAMP reporter score ([1]; pH 5.5)	cAMP reporter score ([1]; pH 6)	cAMP reporter score ([1]; pH 6, modulator: ogerin)	cAMP reporter score ([1]; pH 6.5, modulator: ogerin)	surface expression score [2]
Y47Q	-1.06	-0.95	-1.56	-0.524	-1.89
Y47R	-0.475	-1.02	-0.182	-1.01	-2.62
Y47S	0.546	0.058	0.247	0.038	-1.67
Y47T	-0.023	-0.635	0.273	0.103	-1.39
Y47V	1.14		1.49	-0.194	
Y47W	1.37	0.611	1.11	1.15	0.277
Y47_L48insGS	-1.42	-1.27	-1.36	-0.874	-2.06
Y47_L48insGSG	-0.911	-0.761	-1.73	-1.34	-2.61
L48_Q49insG	-1.32	-1.02	-1.95	-0.751	-2.52
L48_Q49insGSG	-1.33	-0.706	-0.592	-0.13	-2.51
Q49A	0.272	-0.158	-0.216	-0.002	0.202
Q49C	-1.09	-0.675		-1.03	0.125
Q49D	-1.07	-0.67		-0.553	-2.95
Q49E	-1.47	-1.35	-2.02	-1.44	-0.889
Q49F	-1.15	-0.724	-1.27	-1	-1.79
Q49G	-1.09	-0.824	-1.73	-1.44	-1.91
Q49H	0.648	0.236	0.5	0.41	-0.118
Q49I	-1.12	0.04	-0.977	-0.917	-0.987
Q49K	0.293	2.1	0.23	2.56	-1.4
Q49L	-0.091	-0.802	-0.534	-1.1	1.75
Q49M	-0.084	-0.147	-0.175	0.375	1.26
Q49N	-0.111	-0.59	0.607	-0.582	-0.253
Q49P	-0.43	-1.41	-1.94	-1.19	-1.99
Q49R	1.32	1.95	0.737	1.73	-1.55
Q49S	-0.559	-0.989	-0.978	-1.85	-1.43
Q49T	-1.52	-1.84	-1.52	-0.905	-0.872

Variant	cAMP reporter score ([1]; pH 5.5)	cAMP reporter score ([1]; pH 6)	cAMP reporter score ([1]; pH 6, modulator: ogerin)	cAMP reporter score ([1]; pH 6.5, modulator: ogerin)	surface expression score [2]
Q49W	-0.115	-0.455	-0.091	-0.326	-1.68
Q49Y	-1.26		-0.561	-1.58	-2.06
Q49_I50insG	-1.01	-1.39	-2.12	-0.598	-1.94
Q49del	-1.65	-0.648	-1.37	-1.3	-2.56
I50_A52del	-2.21	-0.214	-0.334	-0.34	-2.7
I50_K51insG	-0.236		-0.979	-0.738	-2.83
K51A	-0.469	-1.55	-0.885	-1.26	-1.36
K51C	-0.607	-0.899	-0.803	-0.835	-1.54
K51E	-0.658	-0.332	-0.553	-0.748	-0.683
K51F	-0.715	-1.05	-1.3	-1.08	-2.11
K51G	-1.32		-0.706	-1.12	
K51H	-0.646		-0.704	-0.726	-2.82
K51I	0.222	-0.979	0.032	-1.1	
K51L	-0.677	-1.24	-1.03	-1.5	-1.67
K51M	0.188	-1.3	-0.055	-0.668	-1.25
K51N	-1.02		-0.897	-1.53	-1.78
K51P	-0.476	-1.15	-1.22	-0.833	-3.7
K51Q	0.736	-0.23	0.286	-0.748	-0.074
K51R	0.681	-0.744	0.89	0.399	-0.084
K51S	0.306	-0.84	-0.502	0.073	
K51T	-0.399	-0.741	-0.43	-1.38	-1.19
K51V	0.287	-0.617	-0.339	-1.44	
K51W	-0.694	-0.853	-1.71	-0.803	-2.16
K51_A52del	-1.71	-1.33	-0.939	-0.877	-1.94
K51_A52insG	-1.12	-1.46	-0.491	-0.586	-1.91
K51_A52insGS	-1.83	-0.762	-2.36	-1.23	-2.49

Variant	cAMP reporter score ([1]; pH 5.5)	cAMP reporter score ([1]; pH 6)	cAMP reporter score ([1]; pH 6, modulator: ogerin)	cAMP reporter score ([1]; pH 6.5, modulator: ogerin)	surface expression score [2]
K51_A52insGSG	-1.79	-1.71			-2.33
A52C	-0.961	-1.52	-0.737	-1.23	-1.5
A52D	0.856	-0.291	0.975	0.691	-0.487
A52E	-0.072	-0.415	-0.36	0.367	-0.811
A52F	-1.22		-0.499	-0.979	-1.79
A52H	-0.173	-0.53	-0.045	-0.462	-0.737
A52I	-0.28		0.338		-2.54
A52K	0.879	2.13	1.24	1.94	1.38
A52L	-0.197	-0.733	-0.376	0.191	-0.977
A52M	0.102	0.301	-0.534	-0.998	-0.621
A52N	-0.25	-0.72	0.133	0.317	-0.571
A52P	-1.21	-0.172	-0.604	-1.02	-2.64
A52Q	0.002	-0.563		-0.136	-1.21
A52R	0.244	1.45	0.073	0.88	0.655
A52S	1.53	0.847	1.73	0.65	
A52T	-0.798	-0.747	-0.955	-0.475	-0.701
A52V	-0.576	-1.31	-0.115	-0.023	-1.6
A52W	-1.37	-0.592	-0.904	-0.845	-1.84
A52Y	0.718	-1.16	-0.156	-0.212	-1.68
A52_R53insGS	-0.522	-1.32	-1.27	-0.509	-2.47
R53A	-0.513	-0.892	-1.32	-1.5	-2.04
R53C	-0.213	-0.718	-0.524	-0.586	-0.78
R53D	-0.343		0.01	-0.849	
R53E	-0.395	-0.826	0.132	-0.108	-1.04
R53F	-0.33	-0.472	-1.11	-0.4	
R53G	1.09	5.54	2.08	4.55	

Variant	cAMP reporter score ([1]; pH 5.5)	cAMP reporter score ([1]; pH 6)	cAMP reporter score ([1]; pH 6, modulator: ogerin)	cAMP reporter score ([1]; pH 6.5, modulator: ogerin)	surface expression score [2]
R53H	0.54	0.325	0.89	-1.06	
R53I	-0.798	-0.89	0.151	-0.083	-1.59
R53K	1.43	0.884	2.27	1.39	2.53
R53L	-1.38	-0.822	-1.31	-1.38	-2.75
R53M	-0.488	-0.197	-1.04	-0.119	-1.12
R53N	-0.434	-0.044	-0.086	0.578	-0.028
R53P	-1.1	-1.71	-0.437	-1.16	-1.8
R53S	1.16	-1.01	1.15	-0.259	
R53T	-0.526	-0.422	-0.695	-0.435	
R53V	-1.61			-0.963	-3.17
R53W	-0.658	-0.9	-0.41	-1.31	-2.04
R53Y	-0.736	0.155	-0.988	-0.814	-0.584
R53_N54del	-2.04	-0.453	-0.879	-0.53	-3.33
R53_N54insGS	-1.17	-1.06	-2.09	-0.905	-2.52
R53del	-2.15	-1.42	-1.3	-0.494	-2.65
N54del	-1.21	-0.642	-0.984	-0.626	-2.32
L56_G57del	-0.939	-0.419	-1.26	-0.332	
L56del	-1.5	-0.674	-1.48	-1.68	-2.62
G57A	-0.205	0.023	1.23	-0.271	-0.3
G57C	-1.37	-1.03	-1.29	-0.817	-1.08
G57E	-1.27	-0.285	-1.31	-1.02	-1.23
G57F	-1.84	-0.906	-1.68	-1.11	-1.85
G57H	-1.43	-1.61	-0.891	-1.01	-2.46
G57I	-0.569	-0.825	-2.62	-0.083	-3.11
G57K	-0.598	-1.06	-1.18	-1.21	-2.68
G57L	-0.711	-1.86	-1.64	-1	-2.99

Variant	cAMP reporter score ([1]; pH 5.5)	cAMP reporter score ([1]; pH 6)	cAMP reporter score ([1]; pH 6, modulator: ogerin)	cAMP reporter score ([1]; pH 6.5, modulator: ogerin)	surface expression score [2]
G57M	-1.37	-1.18	-0.839	-1.69	
G57N	-1.68	-0.125	-0.792	0.477	-1.79
G57P	-2.58	-1.18	-1.5	-1.4	-1.33
G57Q	-1.83	-1.42	-1.61	-0.791	-1.96
G57R	-1.34	-0.547	-1.49	-0.863	-2.19
G57S	-0.178	-0.229	-0.544	-0.24	-2.11
G57T	-0.526		-0.91		-1.61
G57V	-1.82	-1.69	-1.71	-1.68	-2.54
G57W	0.012	-0.86		-1.53	-2.22
G57Y	-1.27		-1.21	-1.05	-2.37
G57_V58del	-1.15	-1.21	-1.23	-0.783	-3.15
G57_V58insGS	-0.716	-1.51	-1.04	-0.895	-2.31
G57_V58insGSG	-0.278	-1		-1.29	
G57del	-2.72	-0.856		-1.48	
V58A	-1.26	-0.531	-0.935		-2.89
V58C	-1.4	-0.924	-0.672	-0.281	-2.17
V58D	-1.49	-0.294	-1.28	-1.31	-2.15
V58E	-1.06		-2.2	-1.42	-1.6
V58G	-1.29	-1.01	-2.03	-1.54	-2.38
V58H	-1.64	-0.63	-1.19	-1.02	-3.21
V58I	-0.817	-0.54	-0.815	-0.547	-0.564
V58K	-1.21	-0.949	-1.45	-0.66	-2.67
V58L	-1.45		-0.962	-1.41	
